From PubChem BioAssay AID485294 (National Center for Advancing Translational Sciences (NCATS), 2010)
Hit rate of the full screen: of about 370,000 compounds, about 150 (0.041%) were called active. The inconclusive results got no clear call from the source; some entries with a clear call stand among them for comparison. Calls follow the shape of the dose curve; as a rule, active = well fitted inhibition curve with a large enough effect; inconclusive = small, poorly fitted or top-dose-only effect; inactive = flat fitted curve, though single readings scatter. No potency is given beside an inconclusive call; the fits are too rough.

Target: Beta-lactamase (Escherichia coli (strain K12)) (UniProt P00811)
Sequence of UniProt P00811 (P00811 whole entry, looked up): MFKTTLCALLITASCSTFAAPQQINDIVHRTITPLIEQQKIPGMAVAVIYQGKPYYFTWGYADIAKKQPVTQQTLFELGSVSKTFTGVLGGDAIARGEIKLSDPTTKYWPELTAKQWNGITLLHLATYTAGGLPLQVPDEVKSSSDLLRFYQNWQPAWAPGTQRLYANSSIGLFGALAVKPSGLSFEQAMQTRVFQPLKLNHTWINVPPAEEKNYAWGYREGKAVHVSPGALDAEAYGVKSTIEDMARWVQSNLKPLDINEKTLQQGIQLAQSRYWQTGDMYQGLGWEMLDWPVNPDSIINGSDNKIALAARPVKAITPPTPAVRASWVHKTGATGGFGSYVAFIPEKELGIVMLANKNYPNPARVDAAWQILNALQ
Test: qHTS Inhibitors of AmpC Beta-Lactamase (assay with detergent); also: nearly all actives have a fitted effect of over 25% in size;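 as to activity change, negative = inhibition: 0% = no-compound wells and -100% = no-enzyme wells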
Settings: AmpC hydrolysis of nitrocefin, absorbance 480 nm, 0.01% Triton; activity change, negative = inhibition: at 114 µM (top of the series)
How it was run: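 20 mM phosphate pH 7.0 + 0.01% (detergent screen) or 0.0001% Triton X-100; 5.3 nM AmpC reagent; cpd preinc 15 min RT; nitrocefin (800 uM stock) to start; A480 q20 s × 4 min; Activity was normalised to no-enzyme and no-compound control wells.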
Potency is read from the fitted curve at half-maximal effect; tags tell the direction and shape of the fitted curve.

Structure (SMILES)	Potency	activity change, negative = inhibition
Cc1c(NC(=O)c2c(F)c(F)c(F)c(F)c2F)c(=O)n(-c2ccccc2)n1C	inconclusive [inhibitor, full curve]	–
Cc1ccc(CC(=O)NCc2cccnc2)cc1	inconclusive [inhibitor, full curve]	–
Oc1cccc(NC(=S)N=Nc2c(O)[nH]c3ccccc23)c1	–	inactive: 10.3%
COCC(=O)N(Cc1cc2ccccc2[nH]c1=O)c1ccccc1OC	inconclusive [inhibitor, full curve, poor fit]	–
Cc1ccc2c(CN(C)Cc3ccc(OC(F)F)cc3)cc(=O)oc2c1C	inconclusive [inhibitor, full curve, poor fit]	–
CCOC(=O)c1nn(-c2ccc(Cl)cc2)cc1O	–	inactive: 3.63%
CCCCc1nnc2c(N(C)S(=O)(=O)c3ccc(C)cc3)nc3ccccc3n12	–	inactive: 2.07%
Cc1ccc(S(=O)(=O)N2CCC(=O)N(C(COCc3cccc(C)c3)Cc3ccccc3)CC2)cc1 (centres undefined)	inconclusive [inhibitor, partial curve, poor fit]	–
O=C1CS/C(=N/N=C/c2ccccc2OS(=O)(=O)c2ccccc2)N1	–	inactive: -14.8%
CCOCCn1c(SCC)nc2c1c(=O)[nH]c(=O)n2C	inconclusive [inhibitor, single point]	–
CCOc1cc(CNCCc2ccc(S(N)(=O)=O)cc2)ccc1OCc1ccc(Cl)cc1	inconclusive [inhibitor, partial curve]	–
COc1cccc(C2CC(=O)Nc3c2c(=O)nc2c(C)cccn32)c1 (centres undefined)	–	inactive: -0.398%
CC1=C(C)CC(C(=O)Nc2ccc(C(N)=O)cc2)C(C(=O)O)C1 (centres undefined)	inconclusive [inhibitor, full curve]	–
O=C(CNC(=O)c1ccccc1Cl)NC1CCN(Cc2ccccc2)CC1	–	inactive: -6.81%
CC#CCC(CC#CC)c1nc2ccccc2c(=O)n1N	–	inactive: -3.82%
CCOC(=O)c1cn(-c2c(Cl)cccc2Cl)c2cc(Cl)c([N+](=O)[O-])cc2c1=O	inconclusive [inhibitor, full curve, poor fit]	–
CCCn1c2ccccc2c2cnn(CC(=O)NCCc3ccc(OCC)c(OCC)c3)c(=O)c21	–	inactive: 18.5%
CN(C)c1cc(Cl)c2nonc2c1N	–	inactive: -4.99%
O=C(CSc1nc(-c2ccccc2F)nc2nc[nH]c12)Nc1c(Cl)cc(Cl)cc1Cl	inconclusive [inhibitor, partial curve, poor fit]	–
CC1(C)Cc2ccccc2-c2nnc(-c3ccccc3)n21	inconclusive [inhibitor, single point]	–
CCOC(=O)/C=C1\SCC(=O)N1CC(=O)NC(C)c1ccccc1 (centres undefined)	–	inactive: -4.67%
Cc1ccc(N2C(=O)C3C(C2=O)C(C(=O)c2ccc(Cl)cc2)N2CCCC32)cc1 (centres undefined)	–	inactive: 0.502%

Structure (SMILES)	Potency	activity change, negative = inhibition
CCN1CCCC1CNC(=O)c1c(O)c2c([nH]c1=O)CCCC2 (centres undefined)	inconclusive [inhibitor, full curve, poor fit]	–
Cn1ccc(NC(=O)Nc2ccc(Cl)cc2Cl)n1	inconclusive [inhibitor, full curve]	–
COC(=O)c1ccc(CSCC(=O)Nc2ccccc2)cc1	–	inactive: 8.04%
CCOC(=O)Nc1ccc2c(c1)nc(CN1CCN(C(C)=O)CC1)n2C	inconclusive [inhibitor, full curve, poor fit]	–
N#Cc1ccc(OC(=O)c2cnccn2)cc1	inconclusive [inhibitor, full curve]	–
O=C(CSc1nc(NS(=O)(=O)c2ccccc2)cc(=O)[nH]1)Nc1ccccc1Cl	inconclusive [inhibitor, partial curve]	–
CC(=O)C1=C(O)C(=O)N(CO)C1c1ccccc1F (centres undefined)	inconclusive [inhibitor, full curve]	–
O=C1CC(c2cccc(Cl)c2)Cc2nc(N3CCN(c4ccccc4)CC3)ncc21 (centres undefined)	inconclusive [inhibitor, partial curve, poor fit]	–
CCCCn1c(N)c(N(CCOC)C(=O)C2CCN(C(=O)c3ccc(F)cc3)CC2)c(=O)[nH]c1=O	inconclusive [inhibitor, partial curve, poor fit]	–
C/C(=N\NC(=O)c1nnn(-c2nonc2N)c1-c1ccc2c(c1)OCO2)c1cccs1	–	inactive: 2.79%
CCOC(=O)c1c(C2COc3ccccc3O2)csc1N (centres undefined)	inconclusive [inhibitor, full curve, poor fit]	–
Cc1ccc(C(=O)N/C(=C/c2cccc([N+](=O)[O-])c2)C(=O)NC(C)C)cc1	inconclusive [inhibitor, partial curve, poor fit]	–
Cc1ccc(C2=Nc3ccccc3N(C(=O)c3ccccc3)C(C)C2)cc1 (centres undefined)	inconclusive [inhibitor, partial curve]	–
COc1ccc(COC(=O)C2CC(=O)N(Cc3ccccc3)C2)cc1 (centres undefined)	inconclusive [inhibitor, full curve]	–
O=C(CCS(=O)(=O)c1nc(-c2ccc3c(c2)OCO3)cc(C(F)(F)F)n1)Nc1ccc(F)c(Cl)c1	–	inactive: 0.85%
CCn1c(=O)c(C(=O)NCc2ccc(Cl)cc2)c(O)c2ccccc21	inconclusive [inhibitor, partial curve, poor fit]	–
COc1ccccc1NC(=O)C(=O)N1CCCC1	inconclusive [inhibitor, full curve]	–
Cc1ccc(OCCNC(=O)c2ccc(COc3ccccc3)o2)cc1	inconclusive [inhibitor, full curve, poor fit]	–
CC(C)(C)c1cc(/C=C2\NC(=O)NC2=O)cc(C(C)(C)C)c1O	inconclusive [inhibitor, partial curve, poor fit]	–
O=C(Cc1coc2ccc3ccccc3c12)N1CCc2ccccc21	inconclusive [inhibitor, full curve, poor fit]	–
O=C1C=CC(=O)N1c1ccc(OC(F)F)cc1	inconclusive [inhibitor, partial curve, poor fit]	–
O=C(O)c1cc(O)c2c(c1)C(=O)c1cccc(O)c1C2=O	inconclusive [inhibitor, partial curve, poor fit]	–
